Source: PubChem BioAssay AID624296 (National Center for Advancing Translational Sciences (NCATS), 2012)
About 9,900 (2.8%) of roughly 350,000 compounds were called active. This list was built around the results that the source calls inconclusive (neither active nor inactive); the mix of calls is not that of the screen. The call rests on the fitted dose curve; in most records, active means well fitted activation curve with a large enough effect; inconclusive means small, poorly fitted or top-dose-only effect; inactive means no such curve, though single readings can be large or run the other way. No potency is given beside an inconclusive call; the fits are too rough.

test: A quantitative high throughput screen for small molecules that induce DNA re-replication in MCF 10a normal breast cells.; further: nearly all actives have a fitted effect of over 50% in size; on activity, positive = re-replication: % of control where 0% means no effect; conditions: MCF 10A DNA re-replication, Hoechst nuclear intensity, 48 h; activity, positive = re-replication: at 46.1 µM (top of the series)
Potency means the concentration at half of the fitted maximal effect; tags describe the fitted curve by direction and shape.

Row | Compound | Potency | activity, positive = re-replication
1 | O=C(CSc1ccc(Cl)cc1)Nc1ccc(N2CCN(C(=O)c3ccc(Cl)cc3)CC2)cc1 | inconclusive [activator, partial curve, poor fit] | 
2 | Cc1c(C(=O)NN2CCOCC2)oc2ccccc12 | inconclusive [activator, partial curve, poor fit] | 
3 | CC(C)N(C(=O)CSc1nc(Cc2ccccc2)nc2ccccc12)C(C)C | inconclusive [activator, single point] | 
4 | Cc1ccc(C(=O)COC(=O)c2cccc(NC(=O)c3ccc([N+](=O)[O-])cc3[N+](=O)[O-])c2)cc1 | inconclusive [activator, partial curve, poor fit] | 
5 | O=C(/C=C/c1ccccc1)c1ccoc1 | inconclusive [activator, single point] | 
6 | CCN(CC)C(=N)/C(C#N)=N/Nc1ccc(C)cc1 | inconclusive [activator, partial curve, poor fit] | 
7 | COc1ccc(S(=O)(=O)N(C)CC(=O)Nc2ccc(C)cc2)cc1OC |  | inactive: -18% [at 9.22 µM]
8 | C=CCn1c(C)cc(C(=O)COC(=O)c2cncc(Br)c2)c1C |  | inactive: 4.73%
9 | CCSC1=C(C#N)C(c2ccccc2OC)CC(=O)N1 (centres undefined) |  | inactive: 2.13%
10 | CCCn1c2ccc(C)cc2c2nnc(SCCN3CCCCC3)nc21 | inconclusive [activator, partial curve, poor fit] | 
11 | COCCN(CC(=O)Nc1cccc(C)c1C)C(=O)Cn1cnc2ccccc2c1=O |  | inactive: -1.79%
12 | CCCCN(C)CCNC(=O)CN1C(=O)CSc2ccc(S(=O)(=O)N3CCCC3)cc21 |  | inactive: -0.644%
13 | Cc1nc2c(ccc3nc(NC(=O)c4ccc5c(c4)OCCO5)sc32)s1 | active: 2.31 µM | 
14 | CCOC(=O)c1ccc(NC(=O)COc2ccccc2CNC2CCCC2)cc1 |  | inactive: 4.7%
15 | CC(=O)Oc1ccc(C2C3=C(CC(C)(C)CC3=O)Nc3cc4c(cc32)OCCO4)cc1 (centres undefined) |  | inactive: -3.64%
16 | COC(=O)c1c(C)nc2ccccc2c1-c1ccccc1 | inconclusive [activator, single point] | 
17 | Cc1ccc(C)c2[nH]c(=O)c(CN(CC3CCCO3)S(=O)(=O)c3ccc4c(c3)OCCO4)cc12 (centres undefined) |  | inactive: -0.262%
18 | CC(C)C(C(=O)NC1CCCCC1)N(CC1CCCO1)C(=O)CNS(=O)(=O)c1ccc(F)cc1 (centres undefined) | inconclusive [activator, full curve, poor fit] | 
19 | COc1cc(/C=N\NC(=O)CC#N)ccc1OC/C=C/c1ccccc1 |  | inactive: 5.92%
20 | COc1ccc(Nc2nc(NC(C)(C)C)nc(N3CCCC3)n2)c(OC)c1 | inconclusive [activator, single point] | 
21 | Cc1cc(C)c(C)c(S(=O)(=O)N2CCN(c3ccc(O)cc3)CC2)c1C | inconclusive [activator, partial curve] | 
22 | COc1ccc(Cl)cc1C(=O)Nc1ccccc1N1CCN(C)CC1 |  | inactive: 27.5%
23 | CCN(CC(=O)Nc1c(F)cccc1F)C(=O)c1ccc(C)c(S(=O)(=O)N2CCCCC2)c1 |  | inactive: -17.3%

Row | Compound | Potency | activity, positive = re-replication
24 | Cc1ccc(-n2nnnc2CNC(=O)c2ccc([N+](=O)[O-])o2)cc1C | inconclusive [activator, partial curve, poor fit] | 
25 | CN(C)S(=O)(=O)c1ccc(Cl)c(NC(=O)CSc2nc3c(cc2C#N)C(=O)CC(C)(C)C3)c1 | active: 2.91 µM | 
26 | CN1CCc2c(sc(N)c2C(N)=O)C1 |  | inactive: -2.75%
27 | COc1ccc(N(C(=O)c2cccnc2)S(=O)(=O)c2cccc([N+](=O)[O-])c2)cc1 | inconclusive [activator, single point] | 
28 | O=C(COC(=O)c1cc[n+]([O-])cc1)NC(=O)c1ccc(OC(F)F)cc1 |  | inactive: 10.4%
29 | COc1ccc(C(=O)Cn2c(C)nc([N+](=O)[O-])c2Br)cc1 | inconclusive [activator, single point] | 
30 | S=C(CN1CCCC1=S)N1CCOCC1 | inconclusive [activator, single point] | 
31 | COc1ccc([C@H]2CC(=O)C=C(c3cc(Cl)ccc3C)C2)cc1 | inconclusive [activator, single point] | 
32 | Cc1ccc(CNS(=O)(=O)c2cn(C)cn2)cc1 |  | inactive: -10.4%
33 | CCOC(=O)C1=C(C)NC(=S)N(C(C)=O)C1c1ccccc1 (centres undefined) | inconclusive [activator, single point] | 
34 | COc1ccccc1-c1cc(C(F)(F)F)nc(NCc2cccs2)n1 | inconclusive [activator, single point] | 
35 | Cc1nnc(SCC(=O)NCc2ccccc2)[nH]c1=O | inconclusive [activator, partial curve, poor fit] | 
36 | CCc1nnc(NC(=O)CSc2nc(-c3ccccc3)cc(-c3ccc(OC)cc3)c2C#N)s1 | inconclusive [activator, partial curve, poor fit] | 
37 | Cc1cc(-c2ccc(C)c(S(=O)(=O)NCCCN3CCN(c4ccccc4)CC3)c2)on1 | inconclusive [activator, partial curve] | 
38 | CN(C)c1ccc(/C=N/NC(=O)c2nnn(-c3nonc3N)c2CN(C)c2ccccc2)cc1 | active: 11.6 µM | 
39 | Cc1c(CCC(=O)NCCCCCC(=O)O)c(=O)oc2cc3occ(-c4ccccc4)c3cc12 | inconclusive [activator, single point] | 
40 | CCOC(=O)C(C)Sc1ncnc2c1nnn2-c1ccc(F)cc1 (centres undefined) | inconclusive [activator, single point] | 
41 | COC(=O)C1(Cc2cc(-c3cccnc3)no2)CCN(C(=O)OC(C)(C)C)CC1 | inconclusive [activator, single point] | 
42 | COc1cc(OC)c(OC)cc1/C=N/Nc1ncnc2c1[nH]c1ccccc12 | inconclusive [activator, partial curve, poor fit] | 
43 | O=C(CN1CCCCC1)Nc1ccc(S(=O)(=O)N2CCCCCC2)cc1 | inconclusive [activator, single point] | 
44 | CSC(=Nc1ccccc1)N=C(SCc1ccccc1)N(C)C | inconclusive [activator, full curve, poor fit] | 
45 | Cc1nc(NC(=O)/C=C/c2ccccc2)n[nH]1 | inconclusive [activator, partial curve, poor fit] | 
46 | Cc1ccc(C)c(NC(=O)CN(C)C(=O)c2cccc(N3C(=O)CCC3=O)c2)c1 |  | inactive: 14.3%

Row | Compound | Potency | activity, positive = re-replication
47 | CCOC(=O)c1sc(NC(=O)CSc2ncn[nH]2)c(C#N)c1C | active: 2.91 µM | 
48 | CCCCn1c(-c2cccs2)nc2nc3ccccc3nc21 |  | inactive: 14.5%
49 | COc1ccc(C(=O)Nc2ccc(N3CCN(c4ccc(OC)cc4)CC3)c(C#N)c2)cc1 | inconclusive [activator, full curve, poor fit] | 
50 | C#Cc1ccc(CN2CCC(Oc3ccc(C(=O)NCc4ccccn4)cc3)CC2)cc1 | inconclusive [activator, single point] | 
51 | CCN1C(=O)/C(=C/c2cccs2)SC1=Nc1ccc(OC)cc1 |  | inactive: 2.47%
52 | CCC(C)Sc1cccc(-c2nc3cc(C)ccn3c2NCc2ccccc2)c1 (centres undefined) | inconclusive [activator, single point] | 
53 | O=C1CC(c2ccccc2)=NN1c1ccccc1 | inconclusive [activator, single point] | 
54 | Cc1cc(C)c(NC(=S)N(C)C)cc1C |  | inactive: -0.465%
55 | Cc1ccc2sc(N(CCCN(C)C)C(=O)c3nc4ccccc4s3)nc2c1C |  | inactive: 5.24%
56 | CC(C)C(=NO)c1ccccc1 |  | inconclusive: 93.3% [activator]
57 | COc1cccc(OC)c1C(=O)OCC(=O)NCc1ccco1 |  | inactive: 10.3%
58 | CCc1ccc(S(=O)(=O)Nc2cccc(-c3ccc4nncn4n3)c2)s1 | inconclusive [activator, single point] | 
59 | O=C(C[C@@H]1C/C=C\C[C@H](Cc2ccc(F)cc2)C(=O)OC[C@@H](Cc2c[nH]c3ccccc23)NC1=O)NCCO | inconclusive [activator, partial curve, poor fit] | 
60 | CC(C)c1ccccc1NC1=CC(=O)CC(C)(C)C1 | inconclusive [activator, single point] | 
61 | O=c1[nH]n(-c2cccc(Cl)c2)c2ncccc12 | inconclusive [activator, single point] | 
62 | Cc1cc(C)n(C(=O)COc2ccccc2[N+](=O)[O-])n1 |  | inactive: -2.01%
63 | COc1ccc(N(C(=O)c2snc(C(N)=O)c2N)C(C(=O)NC2CCCC2)c2cccs2)cc1OC (centres undefined) |  | inactive: -11.1%
64 | CCc1cc[n+](C2=C([O-])c3ccccc3C(=O)/C2=N\S(=O)(=O)c2cccs2)cc1 | inconclusive [activator, single point] | 
65 | CON(C)c1nc(C2CCCCC2)c2cc(C)ccc2n1 | inconclusive [activator, partial curve, poor fit] | 
66 | O=C1CCCC2=C1C1(CCCCC1)N=C(Nc1nc3ccccc3o1)N2 | inconclusive [activator, partial curve, poor fit] | 
67 | COc1nc(-c2ccccc2)ccc1-c1noc(COc2ccccc2)n1 | inconclusive [activator, single point] | 
68 | O=C(Cn1ccc2ccccc2c1=O)NCCC(=O)NC1CCN(Cc2ccccc2)CC1 | inconclusive [activator, single point] | 
69 | COc1ccc(CN2C(CC(=O)Nc3cccnc3)c3ccc(C(F)(F)F)cc3S2(=O)=O)cc1 (centres undefined) | inconclusive [activator, partial curve, poor fit] | 
